Results published in PubChem BioAssay (Tox21).
Inconclusive means that the source gave no clear call. Such entries were picked first, then a sample of the others. For part of these data: Where the call is inconclusive, the potency comes from a doubtful curve fit. The source made the active and inactive calls. Unless noted, calls come from the whole dose curve; as a rule, active = well fitted curve in the direction sought with a large enough effect in the repeat runs; inconclusive = weak or mixed curves; inactive = no such curve, though single readings can be large; an effect the other way counts as inactive or inconclusive.

Assays:
[1] = target: Glucocorticoid receptor (Homo sapiens) (UniProt P04150); assay: qHTS assay to identify small molecule antagonists of the glucocorticoid receptor (GR) signaling pathway (AID 720692; active = well fitted inhibition curve with a large enough effect in the signal ratio in the repeat runs, not every such curve was filed as active; inconclusive = weak or mixed curves, or effect the other way; inactive = no such curve, though single readings can be large or run the other way; the % refers to the signal ratio; note: potency is the fitted concentration of half-maximal effect; for activity change, negative = inhibition: % is set by controls: 0 for no effect and ±100 for the full control effect); details: GR-bla HeLa, beta-lactamase FRET ratio, dexamethasone-stimulated, 18 h; activity change, negative = inhibition: at 58.5 µM (top of the series) unless noted
Summary of the method: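 Antagonism was scored as loss of dexamethasone-driven (5 nM final) reporter signal in HeLa cells bearing a glucocorticoid response element–beta-lactamase construct, after 18 h compound exposure at 37 C and 2 h FRET substrate loading.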

[2] = target: Retinoic acid receptor RXR-alpha (Homo sapiens) (UniProt P19793); assay: qHTS assay to identify small molecule agonists of the RXR signaling pathway (AID 1159527; calls by dose curve; note: nearly all actives have a fitted effect of over 35% in size; note: potency is the fitted concentration of half-maximal effect; for activation: % is set by controls: 0 for no effect and ±100 for the full control effect); details: HEK293T RXRa-UAS-bla, beta-lactamase ratio, 16 h; activation: at 76.8 µM (top of the series) unless noted
Summary of the method: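 Reporter activation is measured as beta-lactamase activity via FRET substrate cleavage (emission 460/530 nm) in HEK 293T cells expressing an RXR-alpha-driven bla construct, following 16 hr compound exposure at 37 C.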

[3] = target: Progesterone receptor (Homo sapiens) (UniProt P06401); assay: qHTS assay to identify small molecule antagonists of the progesterone receptor (PR) signaling pathway (AID 1346795; active = well fitted inhibition curve with a large enough effect in the signal ratio in the repeat runs, not every such curve was filed as active; inconclusive = weak or mixed curves; the % refers to the signal ratio; note: potency is the fitted concentration of half-maximal effect; for activity change, negative = inhibition: % is set by controls: 0 for no effect and ±100 for the full control effect); details: PR-UAS-bla HEK293T, beta-lactamase FRET ratio, 16 h; activity change, negative = inhibition: at 92.4 µM (top of the series) unless noted
Summary of the method: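 After 6 hr plating at 37C in 2% stripped-serum medium, PR-UAS-bla HEK293T cells got compounds, then 1 nM R5020. Sixteen hours later, LiveBLAzer substrate was applied for 2 hr at room temperature and fluorescence was recorded.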

[4] = qHTS assay for small molecule disruptors of the mitochondrial membrane potential (AID 720635); details: HepG2 mitochondrial membrane potential, Mito-MPS dye ratio; ratio activity, negative = MMP loss: at 83.2 µM (top of the series) unless noted; note: potency is the fitted concentration of half-maximal effect
Summary of the method: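 HepG2 cells exposed to compound 1 hr at 37C, then Mito-MPS dye 30 min. Ratio read of aggregate (540/590 nm) versus monomer (490/535 nm) fluorescence.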

[5] = target: Peroxisome proliferator-activated receptor gamma (Homo sapiens) (UniProt P37231); assay: qHTS assay to identify small molecule antagonists of the peroxisome proliferator-activated receptor gamma (PPARg) signaling pathway (AID 743191; calls by dose curve; note: nearly all actives have a fitted effect of over 30% in size; note: potency is the fitted concentration of half-maximal effect); details: HEK293H PPARg-UAS-bla, beta-lactamase ratio, antagonist, 17 h; ratio activity, negative = inhibition: at 62.6 µM (top of the series) unless noted
Summary of the method: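 GeneBLAzer PPARg UAS-bla HEK293H cells, 5 h post-plating, exposed to compounds 17 h at 37C. LiveBLAzer B/G FRET substrate added for 1 h at room temperature; beta-lactamase reporter read by fluorescence intensity.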

[6] = qHTS assay for small molecule agonists of the antioxidant response element (ARE) signaling pathway (AID 743202; active = well fitted activation curve with a large enough effect in the signal ratio in the repeat runs, not every such curve was filed as active; inconclusive = weak or mixed curves, or effect the other way; inactive = no such curve, though single readings can be large or run the other way; the % refers to the signal ratio; note: potency is the fitted concentration of half-maximal effect); details: HepG2 ARE-bla reporter, beta-lactamase FRET, 16 h; activation: at 73.3 µM (top of the series) unless noted
Summary of the method: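 HepG2 ARE-bla reporter line, 2,000 cells/well; 5 h preincubation 37 C/5% CO2; compound (DMSO) 16 h 37 C; B/G FRET substrate 2 h RT; fluorescence intensity.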

[7] = qHTS assay to identify small molecule agonists of the farnesoid-X-receptor (FXR) signaling pathway - cell viability counter screen (AID 743218); details: FXR-bla HEK293T viability, CellTiter-Glo luminescence, 16 h; viability change, negative = cytotoxic: at 62.6 µM (top of the series) unless noted; note: potency is the fitted concentration of half-maximal effect; nearly all actives have a fitted effect of over 45% in size
Summary of the method: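 Cells were seeded, left 5 h at 37 C and 5% CO2, then dosed with compound in DMSO for 16 h. After the beta-lactamase FRET read, CellTiter-Glo was added and luminescence measured 30 min later.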

[8] = target: Estrogen receptor beta (Homo sapiens) (UniProt Q92731); assay: qHTS assay to identify small molecule antagonists of the estrogen receptor beta (ER-beta) signaling pathway (AID 1259378; active = well fitted inhibition curve with a large enough effect in the signal ratio in the repeat runs, not every such curve was filed as active; inconclusive = weak or mixed curves, or effect the other way; inactive = no such curve, though single readings can be large or run the other way; the % refers to the signal ratio; note: potency is the fitted concentration of half-maximal effect); details: ER-beta-UAS-bla HEK293T, beta-lactamase FRET ratio, 16 h; activity, negative = inhibition: at 92.4 µM (top of the series) unless noted
Summary of the method: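 ER-beta-UAS-bla HEK293T cells in 2% charcoal-stripped FBS medium treated with compound plus 1nM final 17-beta-estradiol for 16 hr at 37C. Beta-lactamase reporter read by FRET substrate fluorescence after 2 hours at room temperature.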

[9] = target: Cytochrome P450 1A2 (Homo sapiens) (UniProt P05177); assay: Cytochrome P450 Family 1 Subfamily A Member 2 (CYP1A2) small molecule antagonists: luciferase reporter qHTS assay (AID 1671199); note: nearly all actives have a fitted effect of over 50% in size; note: potency is the fitted concentration of half-maximal effect
Summary of the method: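 Compounds were incubated with CYP1A2 and a luminogenic proluciferin substrate for 10 min at room temperature before the reaction was started with NADPH regeneration solution. After 1 h, detection reagent was added and light output, proportional to CYP activity, was recorded.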

[10] = target: Vitamin D3 receptor (Homo sapiens) (UniProt P11473); assay: qHTS assay to identify small molecule antagonists of the vitamin D receptor (VDR) signaling pathway (AID 743223; active = well fitted inhibition curve with a large enough effect in the signal ratio in the repeat runs, not every such curve was filed as active; inconclusive = weak or mixed curves, or effect the other way; inactive = no such curve, though single readings can be large or run the other way; the % refers to the signal ratio; note: % is set by controls: 0 for no effect and ±100 for the full control effect); details: VDR-UAS-bla HEK293T, beta-lactamase FRET ratio, 16 h; activity change, negative = inhibition: at 61 µM (top of the series) unless noted
Summary of the method: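 After VDR-bla cells are plated and left 4 h at 37C, DMSO-dissolved compounds and 3 nM (final) calcitriol agonist are added. Incubation continues 16 h at 37C; FRET beta-lactamase substrate then develops 2 h at room temperature.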

[11] = qHTS assay to identify small molecule antagonists of the thyroid receptor (TR) signaling pathway - cell viability counter screen (AID 743064); details: GH3.TRE-Luc viability, CellTiter-Fluor, 24 h; activity change, negative = cytotoxic: at 70.3 µM (top of the series) unless noted; note: potency is the fitted concentration of half-maximal effect; nearly all actives have a fitted effect of over 50% in size
Summary of the method: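 Same-well viability check: GH3.TRE-Luc cells stimulated with 1 nM T3 alongside test compound for 23.5 h, followed by CellTiter-Fluor fluorescence.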

[12] = qHTS assay for identifying genotoxic compounds that show differential cytotoxicity against isogenic chicken DT40 cell lines with known DNA damage response pathways - wild type cell line (AID 743012); details: DT40 wild type chicken cells viability, CellTiter-Glo, 40 h; activity change, negative = cytotoxicity: at 68.4 µM (top of the series) unless noted; note: nearly all actives have a fitted effect of over 60% in size; note: potency is the fitted concentration of half-maximal effect
Summary of the method: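 Cytotoxicity in repair-proficient parental chicken DT40 cells serves as the comparator for Rad54/Ku70- and Rev3-deficient lines. Cells were exposed to compounds for 40 h at 37 C/5% CO2, and ATP-based luminescence (CellTiter-Glo) measured viability.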

[13] = qHTS assay for identifying genotoxic compounds that show differential cytotoxicity against isogenic chicken DT40 cell lines with known DNA damage response pathways - Rev3 mutant cell line (AID 743014); details: chicken DT40 Rev3-/- viability, CellTiter-Glo, 40 h; activity, negative = cytotoxicity: at 68.4 µM (top of the series) unless noted; note: nearly all actives have a fitted effect of over 55% in size; note: potency is the fitted concentration of half-maximal effect
[14] = target: Thyrotropin receptor (Homo sapiens) (UniProt P16473); assay: qHTS assay to identify small molecule agonists of the thyroid stimulating hormone receptor (TSHR) signaling pathway (AID 1224843; calls by dose curve; note: % is set by controls: 0 for no effect and ±100 for the full control effect; nearly all actives have a fitted effect of over 45% in size); details: TSHR-HEK293 cells, cAMP HTRF, agonist mode, 30 min; activation: at 92.4 µM (top of the series) unless noted
Summary of the method: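 HEK293/TSHR, 800 cells/well; cpd 30 min RT; add cAMP-d2 + anti-cAMP-cryptate, 1 h RT; fluorescence read on plate reader. 15-pt titration, n=3.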

[15] = target: Estrogen receptor (Homo sapiens) (UniProt P03372); assay: qHTS assay to identify small molecule agonists of the estrogen receptor alpha (ER-alpha) signaling pathway using the BG1 cell line (AID 743079); details: BG1Luc4E2 cells, ERE-luciferase agonist, 22 h; activation: at 70.3 µM (top of the series) unless noted; note: nearly all actives have a fitted effect of over 20% in size; note: potency is the fitted concentration of half-maximal effect
[16] = target: Cytochrome P450 2C19 (Homo sapiens) (UniProt P33261); assay: Cytochrome P450 Family 2 Subfamily C Member 19 (CYP2C19) small molecule antagonists: luciferase reporter qHTS assay (AID 1671197); note: nearly all actives have a fitted effect of over 65% in size; note: potency is the fitted concentration of half-maximal effect
Summary of the method: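 Compounds were tested on CYP2C19 activity via proluciferin conversion to luciferin. The 37C, 1 h reaction followed NADPH addition; detection reagent stopped it.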

[17] = qHTS assay to identify small molecule agonists of the progesterone receptor (PR) signaling pathway - cell viability counter screen (AID 1346799; calls by dose curve; note: % is set by controls: 0 for no effect and ±100 for the full control effect; nearly all actives have a fitted effect of over 45% in size)
Summary of the method: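 Viability was scored by ATP luminescence (CellTiter-Glo, 30 min, room temperature) in the same wells used for the reporter readout, after 16 hr compound exposure of PR-UAS-bla HEK293T cells.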

[18] = qHTS assay for small molecule agonists of the p53 signaling pathway (AID 651631; calls by dose curve; note: potency is the fitted concentration of half-maximal effect; nearly all actives have a fitted effect of over 15% in size); details: HCT-116 p53RE-bla reporter, beta-lactamase FRET ratio, 16 h; activation: at 73.3 µM (top of the series) unless noted
Summary of the method: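 Fluorescence intensity from cleaved LiveBLAzer B/G substrate (2 h, room temperature) served as the signal. Beforehand, HCT-116 reporter cells bearing p53 response elements were treated 16 h at 37 °C with DMSO-dissolved compounds.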

[19] = target: Cytochrome P450 2C9 (Homo sapiens) (UniProt P11712); assay: Cytochrome P450 Family 2 Subfamily C Member 9 (CYP2C9) small molecule antagonists: luciferase reporter qHTS assay (AID 1671198); note: potency is the fitted concentration of half-maximal effect; nearly all actives have a fitted effect of over 50% in size
Summary of the method: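 P450-Glo proluciferin substrate with CYP2C9 enzyme; 10 min RT preincubation, then NADPH regeneration 1 h at 37C; luciferin detection reagent 20 min RT, luminescence in relative luminescence units.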

[20] = target: Peroxisome proliferator-activated receptor delta (Homo sapiens) (UniProt Q03181); assay: qHTS assay to identify small molecule antagonists of the peroxisome proliferator-activated receptor delta (PPARd) signaling pathway (AID 743215; active = well fitted inhibition curve with a large enough effect in the signal ratio in the repeat runs, not every such curve was filed as active; inconclusive = weak or mixed curves, or effect the other way; inactive = no such curve, though single readings can be large or run the other way; the % refers to the signal ratio;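 note: cells stimulated with agonist L165041 at 300 nM final during compound exposure; potency is the fitted concentration of half-maximal effect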); details: HEK293H PPARd-UAS-bla, beta-lactamase FRET ratio, antagonist, 17 h; ratio activity, negative = inhibition: at 62 µM (top of the series) unless noted
Summary of the method: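 Cells: HEK293H with a UAS-driven beta-lactamase reporter responsive to PPARd. Compounds were co-added with L165041 (300 nM, final) and incubated 17 h at 37 C before a 2 h room-temperature FRET substrate step and fluorescence reading.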
Tags give direction and shape of the fitted curve or compound fluorescence and quenching.

Chain of UniProt Q92731 (Q92731 whole entry, looked up): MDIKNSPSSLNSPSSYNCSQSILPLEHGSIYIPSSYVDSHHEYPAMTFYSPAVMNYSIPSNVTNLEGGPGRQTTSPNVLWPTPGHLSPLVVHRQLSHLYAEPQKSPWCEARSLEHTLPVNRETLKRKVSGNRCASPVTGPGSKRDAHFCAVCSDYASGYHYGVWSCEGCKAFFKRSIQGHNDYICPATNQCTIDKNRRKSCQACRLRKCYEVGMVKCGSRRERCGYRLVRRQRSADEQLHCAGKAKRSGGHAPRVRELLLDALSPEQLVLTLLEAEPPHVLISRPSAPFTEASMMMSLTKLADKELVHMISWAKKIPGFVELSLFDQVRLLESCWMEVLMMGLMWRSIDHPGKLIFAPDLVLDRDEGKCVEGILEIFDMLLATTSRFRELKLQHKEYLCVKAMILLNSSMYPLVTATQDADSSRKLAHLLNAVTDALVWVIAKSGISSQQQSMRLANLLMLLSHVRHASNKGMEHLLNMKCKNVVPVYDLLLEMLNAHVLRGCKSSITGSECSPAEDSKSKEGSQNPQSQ
Chain of UniProt P06401 (P06401 whole entry, looked up): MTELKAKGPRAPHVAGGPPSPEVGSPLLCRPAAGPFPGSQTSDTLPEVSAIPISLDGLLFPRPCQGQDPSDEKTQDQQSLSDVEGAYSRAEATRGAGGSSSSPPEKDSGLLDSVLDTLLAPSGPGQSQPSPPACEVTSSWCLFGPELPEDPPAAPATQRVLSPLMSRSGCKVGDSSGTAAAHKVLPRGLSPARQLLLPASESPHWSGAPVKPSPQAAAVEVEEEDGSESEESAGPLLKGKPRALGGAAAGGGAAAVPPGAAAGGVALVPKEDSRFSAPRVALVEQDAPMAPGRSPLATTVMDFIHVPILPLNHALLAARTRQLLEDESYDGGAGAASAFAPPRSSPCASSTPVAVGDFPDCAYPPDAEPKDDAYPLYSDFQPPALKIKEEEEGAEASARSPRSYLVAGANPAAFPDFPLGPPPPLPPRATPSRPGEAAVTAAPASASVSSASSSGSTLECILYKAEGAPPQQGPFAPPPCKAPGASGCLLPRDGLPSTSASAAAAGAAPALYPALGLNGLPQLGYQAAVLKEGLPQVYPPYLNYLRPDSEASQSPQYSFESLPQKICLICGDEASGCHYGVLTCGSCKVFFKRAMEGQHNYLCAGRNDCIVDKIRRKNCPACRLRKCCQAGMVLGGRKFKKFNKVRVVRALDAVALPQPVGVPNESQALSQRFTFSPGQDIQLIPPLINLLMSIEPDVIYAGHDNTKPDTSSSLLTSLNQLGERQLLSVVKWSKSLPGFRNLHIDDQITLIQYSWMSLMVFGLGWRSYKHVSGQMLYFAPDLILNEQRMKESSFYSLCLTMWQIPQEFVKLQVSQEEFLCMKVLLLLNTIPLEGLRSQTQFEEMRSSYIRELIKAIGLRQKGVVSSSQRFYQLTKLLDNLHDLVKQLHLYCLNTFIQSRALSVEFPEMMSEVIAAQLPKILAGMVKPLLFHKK
Chain of UniProt P04150 (P04150 whole entry, looked up): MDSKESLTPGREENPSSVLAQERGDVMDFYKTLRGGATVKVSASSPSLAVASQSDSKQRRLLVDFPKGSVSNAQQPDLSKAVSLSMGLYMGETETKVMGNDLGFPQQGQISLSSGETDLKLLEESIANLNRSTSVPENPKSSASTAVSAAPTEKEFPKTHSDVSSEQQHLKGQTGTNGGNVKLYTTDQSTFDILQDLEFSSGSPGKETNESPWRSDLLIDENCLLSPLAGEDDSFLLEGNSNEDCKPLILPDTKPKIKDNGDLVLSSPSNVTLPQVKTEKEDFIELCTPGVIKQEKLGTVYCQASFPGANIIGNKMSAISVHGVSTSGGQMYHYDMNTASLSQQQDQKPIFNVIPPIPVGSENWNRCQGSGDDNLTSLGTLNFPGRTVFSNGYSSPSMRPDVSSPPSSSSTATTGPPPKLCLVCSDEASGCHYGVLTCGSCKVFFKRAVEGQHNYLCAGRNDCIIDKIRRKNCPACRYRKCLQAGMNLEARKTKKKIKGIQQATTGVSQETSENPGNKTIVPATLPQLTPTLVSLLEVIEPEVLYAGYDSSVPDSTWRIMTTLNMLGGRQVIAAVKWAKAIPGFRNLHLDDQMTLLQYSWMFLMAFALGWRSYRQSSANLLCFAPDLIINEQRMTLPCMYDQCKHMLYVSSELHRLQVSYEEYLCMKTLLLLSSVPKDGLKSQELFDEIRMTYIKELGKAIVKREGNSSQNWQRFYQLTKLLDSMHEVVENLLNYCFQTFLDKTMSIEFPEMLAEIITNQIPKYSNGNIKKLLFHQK
Chain of UniProt P37231 (P37231 whole entry, looked up): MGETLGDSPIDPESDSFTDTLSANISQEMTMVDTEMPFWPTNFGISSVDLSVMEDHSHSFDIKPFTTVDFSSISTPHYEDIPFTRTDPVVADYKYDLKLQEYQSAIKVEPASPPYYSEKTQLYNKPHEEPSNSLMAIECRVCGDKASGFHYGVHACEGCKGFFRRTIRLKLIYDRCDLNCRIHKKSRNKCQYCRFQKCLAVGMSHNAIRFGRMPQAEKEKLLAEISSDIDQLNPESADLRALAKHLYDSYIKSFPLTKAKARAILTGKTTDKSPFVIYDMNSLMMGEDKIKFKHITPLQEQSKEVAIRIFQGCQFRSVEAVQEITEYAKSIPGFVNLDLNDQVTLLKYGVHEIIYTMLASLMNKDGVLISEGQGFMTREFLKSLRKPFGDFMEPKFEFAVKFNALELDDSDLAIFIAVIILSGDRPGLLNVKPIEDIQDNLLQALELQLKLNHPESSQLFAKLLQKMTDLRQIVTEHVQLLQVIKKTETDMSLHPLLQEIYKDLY
Chain of UniProt P33261 (P33261 whole entry, looked up): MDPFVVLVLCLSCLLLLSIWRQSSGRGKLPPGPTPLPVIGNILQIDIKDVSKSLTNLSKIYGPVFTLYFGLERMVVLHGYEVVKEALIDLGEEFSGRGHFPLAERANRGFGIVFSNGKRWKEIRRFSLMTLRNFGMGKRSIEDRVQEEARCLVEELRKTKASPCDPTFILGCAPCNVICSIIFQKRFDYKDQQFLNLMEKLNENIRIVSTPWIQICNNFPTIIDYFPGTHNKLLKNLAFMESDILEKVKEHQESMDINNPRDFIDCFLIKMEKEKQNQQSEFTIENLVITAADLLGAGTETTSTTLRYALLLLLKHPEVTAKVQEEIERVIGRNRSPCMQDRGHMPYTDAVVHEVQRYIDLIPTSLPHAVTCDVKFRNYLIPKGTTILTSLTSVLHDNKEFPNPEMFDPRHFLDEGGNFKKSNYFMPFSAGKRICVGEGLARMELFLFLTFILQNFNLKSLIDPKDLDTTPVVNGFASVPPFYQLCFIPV
Chain of UniProt P19793 (P19793 whole entry, looked up): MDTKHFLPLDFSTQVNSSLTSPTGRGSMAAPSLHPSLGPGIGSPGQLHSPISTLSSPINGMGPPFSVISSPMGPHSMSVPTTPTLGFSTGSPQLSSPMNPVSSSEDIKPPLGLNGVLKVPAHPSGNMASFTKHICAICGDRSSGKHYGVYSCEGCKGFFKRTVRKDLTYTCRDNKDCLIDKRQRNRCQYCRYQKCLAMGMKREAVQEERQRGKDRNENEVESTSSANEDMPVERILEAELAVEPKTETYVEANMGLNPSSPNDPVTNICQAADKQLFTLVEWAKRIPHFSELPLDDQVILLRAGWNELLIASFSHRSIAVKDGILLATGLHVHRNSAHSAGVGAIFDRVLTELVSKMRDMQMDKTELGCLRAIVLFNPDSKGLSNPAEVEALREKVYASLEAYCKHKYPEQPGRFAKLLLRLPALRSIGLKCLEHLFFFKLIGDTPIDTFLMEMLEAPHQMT
Chain of UniProt P05177 (P05177 whole entry, looked up): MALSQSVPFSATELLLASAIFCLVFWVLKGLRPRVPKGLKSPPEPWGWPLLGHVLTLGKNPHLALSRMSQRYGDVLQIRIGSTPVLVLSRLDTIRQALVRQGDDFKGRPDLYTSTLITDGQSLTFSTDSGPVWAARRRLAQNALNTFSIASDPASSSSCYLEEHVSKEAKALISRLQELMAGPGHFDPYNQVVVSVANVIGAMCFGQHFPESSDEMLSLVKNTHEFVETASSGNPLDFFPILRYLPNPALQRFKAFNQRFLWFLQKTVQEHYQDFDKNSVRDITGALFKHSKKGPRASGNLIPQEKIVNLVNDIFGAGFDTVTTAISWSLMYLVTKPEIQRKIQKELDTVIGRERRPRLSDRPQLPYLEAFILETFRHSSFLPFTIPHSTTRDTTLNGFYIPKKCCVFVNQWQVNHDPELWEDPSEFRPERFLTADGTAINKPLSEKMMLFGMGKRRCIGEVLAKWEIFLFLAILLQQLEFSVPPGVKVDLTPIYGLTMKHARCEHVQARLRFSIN
Chain of UniProt P11473 (P11473 whole entry, looked up): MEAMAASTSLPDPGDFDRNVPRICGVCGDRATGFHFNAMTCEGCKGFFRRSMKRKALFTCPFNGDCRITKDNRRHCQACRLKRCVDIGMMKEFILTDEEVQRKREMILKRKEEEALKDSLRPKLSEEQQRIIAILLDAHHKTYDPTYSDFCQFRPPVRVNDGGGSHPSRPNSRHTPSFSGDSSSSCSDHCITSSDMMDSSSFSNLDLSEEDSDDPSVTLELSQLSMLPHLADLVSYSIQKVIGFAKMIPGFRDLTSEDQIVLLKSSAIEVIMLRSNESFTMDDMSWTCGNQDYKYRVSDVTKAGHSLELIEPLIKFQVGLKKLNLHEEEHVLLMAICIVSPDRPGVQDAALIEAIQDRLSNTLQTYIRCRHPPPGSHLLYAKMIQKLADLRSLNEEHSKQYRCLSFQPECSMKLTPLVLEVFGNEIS

NC(=O)N[C@@H](CCC(=O)O)C(=O)O
inactive: Potency [1] | Potency [2] | Potency [3]

CC(C)[C@H](N)C(=O)OCCOCn1cnc2c(=O)[nH]c(N)nc21
inactive: Potency [6] | Potency [2] | Potency [9]
inconclusive: Potency [4] 15 µM [rising, partial curve, poor fit] | ratio activity, negative = inhibition [5] -16.1% | Potency [7] 0.473 µM [rising, full curve, poor fit] | activity, negative = inhibition [8] 26.9% [at 42.5 µM]

O=C(NCC(O)CO)c1c(I)c(C(=O)NCC(O)CO)c(I)c(N(CCO)C(=O)CO)c1I (configuration not stated)
inactive: Potency [4] | Potency [2] | Potency [3]
inconclusive: activity change, negative = inhibition [1] 1.76% [at 27 µM] | activation [6] -18.1% | Potency [7] 13.3 µM [rising, full curve, poor fit] | activity change, negative = inhibition [10] -12.3%

CCOC(=O)c1ccccc1OC
inconclusive: Potency [11] 27.3 µM [rising, full curve, poor fit] | activation [2] 8.32%
inactive: Potency [4]

C=C(C)C1CCC(C)(O)CC1 (configuration not stated)
inactive: Potency [4] | Potency [1] | Potency [12] | Potency [13] | Potency [5] | Potency [6] | Potency [2] | Potency [14] | Potency [8] | Potency [9]

COCc1nnc(-c2ccc[n+]([O-])c2)n1-c1c(Cl)c(Cl)cc2[nH]c(=O)c(=O)[nH]c12
inconclusive: activation [15] 13.8% [phenotype inactive] | activity change, negative = inhibition [3] 16.1% | Potency [16] 89.4 µM [inhibitor, single point] | Potency [9] 39.9 µM [inhibitor, partial curve]
inactive: Potency [5] | Potency [6] | Potency [10] | Potency [2]

C[C@H](NC(CCc1ccccc1)C(=O)O)C(=O)N1CCC[C@H]1C(=O)O (some centres not stated)
inactive: Potency [4] | Potency [12] | Potency [2] | Potency [17] | Potency [16]
inconclusive: Potency [11] 13.3 µM [rising, single point]

CCOc1nc2cccc(C(=O)O)c2n1Cc1ccc(-c2ccccc2-c2nn[nH]n2)cc1
inactive: Potency [3] | Potency [17]
active: Potency [15] 0.0376 µM
inconclusive: Potency [18] 33.5 µM [cytotoxic] | Potency [1] 30.1 µM [cytotoxic, single point] | Potency [12] 33.5 µM [cytotoxic, single point] | activation [6] 8.63% | Potency [7] 0.0007 µM | Potency [2] 26.8 µM [activator, single point]

CO
inactive: Potency [2]

c1ccc(-c2nc[nH]c2-c2ccccc2)cc1
inconclusive: Potency [4] 11.9 µM [inhibitor, partial curve] | Potency [12] 26.6 µM [cytotoxic, partial curve] | Potency [13] 26.6 µM [cytotoxic, partial curve, poor fit] | Potency [6] 29.8 µM | activation [2] -21.9% [at 35.3 µM] | activity, negative = inhibition [8] -31.2% [at 42.5 µM] | Potency [3] 33.5 µM [single point] | Potency [16] 0.0022 µM [inhibitor, full curve, poor fit] | Potency [19] 30.9 µM [inhibitor, partial curve]
active: Potency [9] 8.12 µM

CC(O)CC(C)O (configuration not stated)
inconclusive: ratio activity, negative = MMP loss [4] 11.8% | Potency [9] 35.1 µM [inhibitor, partial curve]
inactive: Potency [2]

CCCC(CCC)(C(=O)OCC)C(=O)OCC
inactive: Potency [6] | Potency [10] | Potency [2] | Potency [14] | Potency [17]
inconclusive: ratio activity, negative = inhibition [5] 13.3% | Potency [20] 33.5 µM [activator, single point] | Potency [9] 27.5 µM [inhibitor, partial curve, poor fit]

O=C(Nc1ccccc1)OCC(CN1CCCCC1)OC(=O)Nc1ccccc1 (configuration not stated)
inconclusive: ratio activity, negative = MMP loss [4] 30.3% [at 39.1 µM] | Potency [6] 18.8 µM [rising, partial curve, poor fit] | Potency [20] 16.8 µM [inhibitor, partial curve, poor fit] | Potency [7] 29.8 µM [cytotoxic] | activity change, negative = inhibition [10] -26.3% | activation [2] -21.1% [at 35.3 µM]
inactive: Potency [12] | Potency [17]
active: Potency [5] 16.8 µM | Potency [8] 26.6 µM | Potency [3] 23.7 µM | Potency [19] 17.4 µM
